{"source": "PubChem BioAssay AID894", "about": "(National Center for Advancing Translational Sciences (NCATS), 2007)", "note": "Several values for one entry are separate records, joined by “and”; a condition that tells them apart may be missing. Equal entries are not always repeated. The campaign covered roughly 150,000 compounds. About 6,500 (4.3%) were called active. Inconclusive means that the source gave no clear call. Such entries were picked first, then a sample of the others. Calls come from the whole dose curve; as a rule, active = well fitted inhibition curve with a large enough effect (not every such curve was filed as active); inconclusive = small, poorly fitted or top-dose-only effect, or another doubt; inactive = no such curve, though single readings can be large or run the other way. A potency beside an inconclusive call is a rough fit, not a confirmed value. % is set by controls: 0 for no effect and ±100 for the full control effect; potency is the fitted concentration of half-maximal effect; tags give direction and shape of the fitted curve.", "data": [{"target": "15-hydroxyprostaglandin dehydrogenase [NAD(+)] (Homo sapiens) (UniProt P15428)", "sequence (P15428 whole entry, looked up)": "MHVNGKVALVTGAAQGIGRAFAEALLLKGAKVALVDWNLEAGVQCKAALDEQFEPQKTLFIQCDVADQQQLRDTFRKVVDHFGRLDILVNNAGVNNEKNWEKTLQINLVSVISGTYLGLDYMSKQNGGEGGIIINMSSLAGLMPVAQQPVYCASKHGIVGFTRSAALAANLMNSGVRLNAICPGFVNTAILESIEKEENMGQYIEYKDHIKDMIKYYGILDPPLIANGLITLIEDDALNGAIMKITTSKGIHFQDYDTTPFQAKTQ", "test": "qHTS Assay for Inhibitors of HPGD (15-Hydroxyprostaglandin Dehydrogenase)", "settings": "purified HPGD, NADH fluorescence kinetic, PGE2 substrate; activity change, negative = inhibition: stronger effect = lower value", "how_it_was_run": "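NADH formation kinetics: reaction with 30 uM PGE2 and 1 mM NAD+ (final), 20 nM enzyme, Tris-HCl pH 8 with Tween 20, after 15 min compound preincubation at room temperature. Fluorescence change, last versus first of five reads.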", "values": [{"smiles": "Cc1ccc(C)c2[nH]c(=O)c(CN(Cc3ccc4c(c3)OCO4)Cc3nnnn3Cc3ccco3)cc12", "Potency": "inconclusive: 25.1 µM [inhibitor, partial curve, poor fit]"}, {"smiles": "O=C(NCCc1c[nH]c2ccccc12)C1CCN(c2nnc(N3CCCC3=O)s2)CC1", "activity change, negative = inhibition": "inactive: -6.44%"}, {"smiles": "Cc1ccc2c(c1)c1ncnc(N3CCOCC3)c1n2C", "Potency": "inconclusive: 25.1 µM [inhibitor, partial curve]"}, {"smiles": "Cn1c(=O)c2nc(-c3ccc(Cl)cc3Cl)oc2c2ccccc21", "Potency": "inconclusive: 28.2 µM [inhibitor, partial curve]"}, {"smiles": "Cc1cccn2c(=O)c3cc(C(=O)NCCCN4CCCC4=O)n(C)c3nc12", "Potency": "inconclusive: 14.1 µM [inhibitor, partial curve]"}, {"smiles": "O=C(N/N=C/C=C/c1ccccc1)c1cc2c(ccc3ccccc32)o1", "Potency": "inconclusive: 28.2 µM [inhibitor, partial curve]"}, {"smiles": "CCn1c2ccccc2c2cc(NC(=O)CSc3nnc(-c4cccc(C)c4)o3)ccc21", "activity change, negative = inhibition": "inactive: -9.96%"}, {"smiles": "COc1nc(-c2ccc(Cl)cc2)ccc1-c1noc(-c2cccs2)n1", "Potency": "inconclusive: 28.2 µM [inhibitor, partial curve]"}, {"smiles": "COC(=O)c1cc(NS(=O)(=O)c2ccc(NCc3cccnc3)c([N+](=O)[O-])c2)cc(C(=O)OC)c1", "activity change, negative = inhibition": "inactive: -21.9%"}, {"smiles": "Cc1c(CC(=O)O)c(=O)oc2cc(OCc3nn[nH]n3)ccc12", "Potency": "inconclusive: 28.2 µM [inhibitor, partial curve]"}, {"smiles": "O=C(c1ccco1)N1CCN(CC(O)COc2ccc3oc4ccccc4c3c2)CC1", "note": "(configuration not stated)", "activity change, negative = inhibition": "inactive: -9.25%"}, {"smiles": "CCOC(=O)c1cn(CC)c2cc(N3CCSCC3)c(F)cc2c1=O", "Potency": "inconclusive: 31.6 µM [inhibitor, partial curve]"}, {"smiles": "Cc1ccc(C(=O)/C=C/NCc2ccc(F)cc2)cc1", "activity change, negative = inhibition": "inactive: -24.2%"}, {"smiles": "O=C(Nc1cccc(C(=O)N2CCCCCC2)c1)c1ccco1", "Potency": "active: 25.1 µM"}, {"smiles": "Nc1cccc(N)c1", "activity change, negative = inhibition": "inactive: -5.29%"}, {"smiles": "CC(C)(C)NC(=S)NNC(=O)c1ccncc1", "Potency": "active: 12.6 µM"}, {"smiles": "NC(=O)c1ccccc1O", "Potency": "inconclusive: 12.6 µM [inhibitor, partial curve] and inconclusive: 28.2 µM [inhibitor, partial curve] and inconclusive: 22.4 µM [inhibitor, partial curve]"}, {"smiles": "O=c1c(-c2nnc(SCc3ccc(Cl)c(Cl)c3)o2)cccn1Cc1ccccc1", "Potency": "inconclusive: 31.6 µM [inhibitor, partial curve]"}, {"smiles": "CCc1ccc(-c2cc(C(F)(F)F)n3nc(C(=O)Nc4c(C)nn(Cc5ccccc5Cl)c4C)cc3n2)s1", "Potency": "inconclusive: 28.2 µM [inhibitor, partial curve]"}, {"smiles": "Cc1ccc2cc3c(NC(=O)c4cccnc4)nn(C)c3nc2c1", "Potency": "inconclusive: 28.2 µM [inhibitor, partial curve]"}, {"smiles": "CC(C)Sc1nc(N)nc(-c2cccs2)c1C#N", "Potency": "inconclusive: 31.6 µM [inhibitor, partial curve]"}, {"smiles": "COc1ccccc1N(C)S(=O)(=O)c1ccc(C(=O)NC2=NCCS2)cc1", "activity change, negative = inhibition": "inactive: 1.62%"}, {"smiles": "COc1ccccc1-n1c(SCc2cc(=O)oc3cc(O)ccc23)nc2ccccc2c1=O", "activity change, negative = inhibition": "inactive: -22.4%"}, {"smiles": "CCn1c(=O)c(=O)[nH]c2cc(C(=O)NC3CCCc4ccccc43)ccc21", "note": "(configuration not stated)", "Potency": "inconclusive: 28.2 µM [inhibitor, partial curve]"}, {"smiles": "O=C(OCC(=O)N1CCN(C(=O)c2ccco2)CC1)c1cc(-c2ccc(F)cc2)nc2ccccc12", "Potency": "inconclusive: 31.6 µM [inhibitor, single point]"}, {"smiles": "Cc1nc(N=Nc2cc(S(=O)(=O)O)ccc2S(=O)(=O)O)c(COP(=O)(O)O)c(C=O)c1O", "Potency": "inconclusive: 39.8 µM [inhibitor, single point]"}, {"smiles": "NC(=O)c1c(NC(=O)c2cccs2)sc2c1CCCCCC2", "Potency": "inconclusive: 35.5 µM [inhibitor, partial curve]"}, {"smiles": "O=C(C[n+]1cc2ccccc2c2ccccc21)c1ccccc1", "Potency": "inconclusive: 35.5 µM [inhibitor, single point]"}, {"smiles": "Cc1nnc(-c2ccc(Oc3ccc(Cl)cc3)c([N+](=O)[O-])c2)o1", "Potency": "inconclusive: 3.55 µM [inhibitor, partial curve]"}, {"smiles": "O=C(C1CCCN(S(=O)(=O)c2cnc[nH]2)C1)N(CCc1ccccc1)Cc1ccccc1", "note": "(configuration not stated)", "activity change, negative = inhibition": "inactive: -12.4%"}, {"smiles": "CC(C)c1ccc(-c2nnc(N)s2)cc1", "Potency": "active: 35.5 µM"}, {"smiles": "COc1ccc(NC(=O)/C(=C\\c2cc(OC)c(OC)cc2[N+](=O)[O-])NC(=O)c2ccccc2)cc1", "Potency": "active: 31.6 µM"}, {"smiles": "O=C1c2nc3ccccn3c2C(=O)N1Cc1ccccc1", "Potency": "inconclusive: 28.2 µM [inhibitor, partial curve]"}, {"smiles": "C=C(C(C)=O)C(O)c1cccc(Br)c1", "note": "(configuration not stated)", "activity change, negative = inhibition": "inactive: -5.23%"}, {"smiles": "Cc1ncsc1C(=O)N1N=C2/C(=C/c3ccccc3)CCCC2C1c1ccccc1", "note": "(configuration not stated)", "Potency": "inconclusive: 17.8 µM [inhibitor, partial curve, poor fit]"}, {"smiles": "Cc1ccc(OCCOCCn2cnc3ccccc3c2=O)c([N+](=O)[O-])c1", "Potency": "inconclusive: 39.8 µM [inhibitor, single point]"}, {"smiles": "CCN1CCN(Cc2ccc(OCc3ccccc3)cc2)CC1", "activity change, negative = inhibition": "inactive: -11.4%"}, {"smiles": "COc1ccc(C2C3=C(CC(C)(C)CC3=O)Nc3c2c(=O)[nH]c(=O)n3Cc2ccccc2)cc1", "note": "(configuration not stated)", "Potency": "inconclusive: 31.6 µM [inhibitor, partial curve]"}, {"smiles": "O=C(/C=C/c1ccc(Br)cc1)c1ccc(NC2=NCCCS2)cc1", "Potency": "active: 8.91 µM"}, {"smiles": "COc1cccc(N2CCN(C(=O)c3ccc4nc(N5CCCCC5)sc4c3)CC2)c1", "Potency": "inconclusive: 35.5 µM [inhibitor, partial curve]"}, {"smiles": "O=C(Cc1ccccc1)Nc1nnc(-c2cccs2)s1", "Potency": "inconclusive: 25.1 µM [inhibitor, partial curve]"}, {"smiles": "CCOc1ccccc1N1CC(O)=C(c2nc3ccccc3s2)C1=N", "Potency": "inconclusive: 28.2 µM [inhibitor, single point]"}]}]}
